Experimental data taken from the supplement of paper PMC8728848.
This is one part of the list.

Tests used:
Assay in all cases: glycan array binding signal (z-score within array); higher = stronger binding
Details in all cases: glycan notation: IUPAC condensed, linker removed
[1] = molecular target: Neu5Gc(a2-8)Neu5Gc(a2-3)Gal(b1-4)GlcNAc(b1-3)Gal(b1-4)GlcNAc
Method in brief: (§1)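 The Consortium for Functional Glycomics database supplied 3228 glycan arrays, of which those lacking an available protein sequence were dropped. The binding signal, a within-array Z-score, was averaged across arrays of the same protein sequence and across linkers. Negative scores can be read as non-binding.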

[2] = molecular target: Neu5Gc(a2-8)Neu5Gc(a2-6)Gal(b1-4)GlcNAc
Method in brief: as §1

[3] = molecular target: Neu5Gc(b2-6)Gal(b1-4)GlcNAc
Method in brief: as §1

B1: LICBM33A (Lactococcus lactis), Q9CE94 (protein)
chain: MKKLLTGLLVAAGLLSVSLLIKTDTVSAHGYVQSPPARGYQGQLDSQSLGWTAAFNIYGNVISNPQSLEAPKGFPECGPADGRIASANGGLGQIGDFVLDNQTSSRWKKTSISTGSNIFTWKYTAPHKTTKWHYYMTKTGWDQNAPLKHSELELIGTINHDGSPATNNLSHTINIPTDRSGYHIVLAVWDVADTSNAFYNVIDINVNNKNASSQVFGPFL
glycan array binding signal (z-score) [1]: 0.409
glycan array binding signal (z-score) [2]: -0.539
glycan array binding signal (z-score) [3]: -0.197
